{"source": "PubChem BioAssay AID588453", "about": "(National Center for Advancing Translational Sciences (NCATS), 2011)", "note": "Screen size: about 390,000 compounds; about 4,000 (1%) were called active. The shares of active, inactive and inconclusive entries below differ from those in the screen. Calls come from the whole dose curve; as a rule, active = well fitted inhibition curve with a large enough effect; inconclusive = small, poorly fitted or top-dose-only effect; inactive = no such curve, though single readings can be large or run the other way. A potency beside an inconclusive call is a rough fit, not a confirmed value. % is set by controls: 0 for no effect and ±100 for the full control effect; potency is the fitted concentration of half-maximal effect; tags give direction and shape of the fitted curve.", "data": [{"target": "Thioredoxin reductase 1, cytoplasmic (Rattus norvegicus) (UniProt O89049)", "sequence (O89049 whole entry, looked up)": "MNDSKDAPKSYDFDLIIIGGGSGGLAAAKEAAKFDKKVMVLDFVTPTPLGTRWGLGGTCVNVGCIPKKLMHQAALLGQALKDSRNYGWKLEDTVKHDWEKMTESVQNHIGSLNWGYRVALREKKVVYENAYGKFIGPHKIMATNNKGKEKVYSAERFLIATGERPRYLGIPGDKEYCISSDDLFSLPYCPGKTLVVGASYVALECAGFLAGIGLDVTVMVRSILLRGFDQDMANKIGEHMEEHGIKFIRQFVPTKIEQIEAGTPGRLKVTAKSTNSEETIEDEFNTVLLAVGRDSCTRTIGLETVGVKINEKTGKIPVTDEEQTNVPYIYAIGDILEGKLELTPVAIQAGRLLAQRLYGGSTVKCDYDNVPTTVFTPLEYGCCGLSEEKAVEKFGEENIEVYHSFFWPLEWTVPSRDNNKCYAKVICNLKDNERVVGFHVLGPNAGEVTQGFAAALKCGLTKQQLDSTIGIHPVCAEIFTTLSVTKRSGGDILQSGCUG", "assay": "qHTS Assay for Inhibitors of Mammalian Selenoprotein Thioredoxin Reductase 1 (TrxR1): qHTS; note: nearly all actives have a fitted effect of over 65% in size", "conditions": "recombinant rTrxR1, NADPH fluorescence consumption, selenite substrate; series mostly up to 114 µM; activity change, negative = inhibition: at the top concentration", "in_short": "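Rat TrxR1 (90 nM in the dispensed reagent) was pre-reduced with 400 uM NADPH for 5 min at room temperature, then incubated with compound for 15 min. After 400 uM selenite was added, NADPH fluorescence (Ex 340/Em 450 nm) was followed for 8 min.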", "values": [{"smiles": "COc1ccccc1NC(=O)Nc1ccnn1C1CCN(C(=O)c2cscn2)CC1", "Potency": "inconclusive: 50.1 µM [inhibitor, partial curve]"}, {"smiles": "Cn1c(=O)c([N+](=O)[O-])c(-n2cnc3ccccc32)c2ccccc21", "Potency": "inconclusive: 44.7 µM [inhibitor, partial curve]"}, {"smiles": "O=C(c1ccc(-c2cccc(Cl)c2Cl)o1)N1CCOCC1", "Potency": "inconclusive: 70.8 µM [inhibitor, single point]"}, {"smiles": "Cc1coc(C)c1C(=O)CC1(O)C(=O)N(Cc2ccccc2)c2ccccc21", "note": "(centres undefined)", "Potency": "inconclusive: 15.8 µM [inhibitor, partial curve]"}, {"smiles": "Cc1ccc(SC2CC(=O)N(c3ccc4c(c3)OCCO4)C2=O)cc1", "note": "(centres undefined)", "activity change, negative = inhibition": "inactive: -9.51%"}, {"smiles": "O=C(NCCCc1nc2ccccc2n1Cc1ccc(Cl)cc1)C1CCCCC1", "activity change, negative = inhibition": "inactive: 7.55%"}, {"smiles": "Cc1ccc(NS(=O)(=O)c2ccc(Cl)c(C(=O)Nc3ccccc3-c3nc4ccccc4[nH]3)c2)cc1C", "activity change, negative = inhibition": "inactive: 49.7%"}, {"smiles": "COc1cccc(C2/C(=C(\\O)c3ccc4c(c3)OCCO4)C(=O)C(=O)N2c2nnc(C)s2)c1", "note": "(centres undefined)", "Potency": "inconclusive: 11.2 µM [inhibitor, full curve]"}, {"smiles": "N#CCC(=N)N1CCN(c2ccc(F)cc2)CC1", "Potency": "inconclusive: 89.1 µM [inhibitor, single point]"}, {"smiles": "COc1cc(-c2c(C#N)c(N)nc3c2CCCC3)cc(OC)c1OC", "Potency": "inconclusive: 70.8 µM [inhibitor, single point]"}, {"smiles": "CCOC(=O)N1CCN(C(=O)c2cc(COc3ccc4ncccc4c3)on2)CC1", "activity change, negative = inhibition": "inactive: 0.413% [at 57.1 µM]"}, {"smiles": "COc1ccccc1N1CCN(CC(O)c2c(C)[nH]c3ccccc23)CC1", "note": "(centres undefined)", "Potency": "inconclusive: 31.6 µM [inhibitor, partial curve]"}, {"smiles": "CC(=O)C1=C(O)C(=O)N(CCc2c[nH]c3ccccc23)C1c1ccc(O)cc1", "note": "(centres undefined)", "Potency": "inconclusive: 44.7 µM [inhibitor, partial curve]"}, {"smiles": "CSC1=C(C#N)C2(CCCCC2)C(C(=O)Nc2ccccc2)=C(C)N1", "Potency": "inconclusive: 79.4 µM [inhibitor, partial curve, poor fit]"}, {"smiles": "COc1cc(OC)c(C2Nc3cccc4cccc(c34)N2)c(OC)c1", "activity change, negative = inhibition": "inactive: 29%"}, {"smiles": "COc1ccccc1NC(=O)N(CCCN1CCOCC1)Cc1cc2cc3c(cc2[nH]c1=O)OCO3", "Potency": "inconclusive: 89.1 µM [inhibitor, partial curve, poor fit]"}, {"smiles": "CCOC(=O)c1c(C)[nH]c(C)c1S(=O)(=O)N1CCCC(C(=O)NCc2cccc(OC)c2)C1", "note": "(centres undefined)", "activity change, negative = inhibition": "inactive: 18.2% [at 57.1 µM]"}, {"smiles": "COC/C=C/C1=CC2=CC(=O)C(C)(OC(=O)c3cnc4ccccc4n3)C(=O)C2=CN1CCN1CCOCC1", "note": "(centres undefined)", "Potency": "inconclusive: 14.1 µM [inhibitor, partial curve]"}, {"smiles": "Cc1nc2ccccn2c1C(=O)N/N=C/c1ccc([N+](=O)[O-])o1", "Potency": "inconclusive: 56.2 µM [inhibitor, partial curve, poor fit]"}, {"smiles": "CCSc1cc(C2C(C#N)=C(N)OC(C)=C2C(=O)OC)c(C)o1", "note": "(centres undefined)", "Potency": "inconclusive: 35.5 µM [inhibitor, partial curve, poor fit]"}, {"smiles": "COc1ccccc1N1CCN(CCCN2C(=O)C3CCCCN3C2=O)CC1", "note": "(centres undefined)", "activity change, negative = inhibition": "inactive: 25.2%"}, {"smiles": "N=c1oc2cc(O)ccc2cc1C(=O)Nc1ccc(F)cc1", "Potency": "inconclusive: 50.1 µM [inhibitor, partial curve, poor fit]"}, {"smiles": "O=c1[nH]c2cc3c(cc2cc1CN(Cc1nnnn1C1CCCC1)C1CCCC1)OCCO3", "Potency": "inconclusive: 14.1 µM [inhibitor, partial curve, poor fit]"}, {"smiles": "CSCCC(NC(=O)c1cc(CC(C)C)oc1C)C(=O)O", "note": "(centres undefined)", "Potency": "inconclusive: 50.1 µM [inhibitor, partial curve, poor fit]"}, {"smiles": "O=C(C1CCCO1)N1CCN(Cc2c(O)ccc3ccccc23)CC1", "note": "(centres undefined)", "Potency": "active: 7.08 µM"}, {"smiles": "COc1cccc(CNC(=O)c2ccc(CS(=O)(=O)Cc3ccccc3C)o2)c1", "Potency": "inconclusive: 50.1 µM [inhibitor, partial curve, poor fit]"}, {"smiles": "CS(=O)(=O)c1ccc(C(=O)OCC(=O)Nc2cccnc2Cl)cc1[N+](=O)[O-]", "Potency": "active: 2.51 µM"}, {"smiles": "Oc1[nH]c2ccccc2c1N=NC(=S)N1CCOCC1", "Potency": "inconclusive: 35.5 µM [inhibitor, partial curve]"}, {"smiles": "C=CCn1c(C)cc(-c2csc(NC)n2)c1C", "Potency": "inconclusive: 7.94 µM [inhibitor, partial curve, poor fit]"}, {"smiles": "CC(=O)c1cccc(CN2CCCC(C(=O)Nc3ccc(-c4ccco4)cc3)C2)c1", "note": "(centres undefined)", "Potency": "inconclusive: 50.1 µM [inhibitor, partial curve]"}, {"smiles": "Cc1ccc(-c2cc(C(=O)Nc3cc([N+](=O)[O-])ccc3C)no2)cc1F", "activity change, negative = inhibition": "inactive: 1.76%"}, {"smiles": "COC(=O)C1=C(O)/C(=C\\c2ccc(O)c(OC)c2)N=C1C", "Potency": "inconclusive: 28.2 µM [inhibitor, single point]"}, {"smiles": "COc1ccc(OC)c(NS(=O)(=O)c2cc3c(cc2Cl)N(C(C)=O)CCO3)c1", "Potency": "active: 17.8 µM"}, {"smiles": "CC(/C=N/NC(=O)c1cc(-c2ccncc2)nc2ccccc12)=C\\c1ccco1", "Potency": "inconclusive: 12.6 µM [inhibitor, full curve, poor fit]"}, {"smiles": "O=C(Oc1ccc(C(=S)N2CCOCC2)cc1)c1ccc([N+](=O)[O-])cc1[N+](=O)[O-]", "activity change, negative = inhibition": "inactive: 1.43%"}, {"smiles": "Cc1nc(N)sc1N=Nc1c(C)n(C)n(-c2ccccc2)c1=O", "Potency": "inconclusive: 50.1 µM [inhibitor, partial curve, poor fit]"}, {"smiles": "COc1cc(CN2CCCN(C)CC2)cc([N+](=O)[O-])c1O", "activity change, negative = inhibition": "inactive: -17.9% [at 57.1 µM]"}, {"smiles": "Cc1ccc(-c2nc3nc(C)cc(N4CCN(c5cccc(C)c5C)CC4)n3n2)cc1", "Potency": "inconclusive: 17.8 µM [inhibitor, partial curve, poor fit]"}, {"smiles": "COc1ccc(CC(=O)Nc2ccc3nc(Nc4ccc(OC)cc4)cc(C)c3c2)cc1", "Potency": "inconclusive: 89.1 µM [inhibitor, single point]"}, {"smiles": "CCOC(=O)C1CCCCN1Cc1ccc(-c2ccccc2)cc1", "note": "(centres undefined)", "activity change, negative = inhibition": "inactive: 30.4%"}, {"smiles": "COc1ccc(OC)c(NC(=O)CSc2ccc(-c3cccs3)nn2)c1", "activity change, negative = inhibition": "inactive: 4.91%"}, {"smiles": "O=C(CSc1nnc(CNc2ccc(F)cc2)n1Cc1ccco1)NC1CC1", "Potency": "inconclusive: 28.2 µM [inhibitor, partial curve, poor fit]"}, {"smiles": "COc1ccc(CC(=O)NCC2CCCN(Cc3cccc(C(F)(F)F)c3)C2)cc1", "note": "(centres undefined)", "activity change, negative = inhibition": "inactive: 1.56% [at 57.1 µM]"}, {"smiles": "CCN1CCN(S(=O)(=O)c2ccc(Cl)c(C(=O)N(C)Cc3ccco3)c2)CC1", "Potency": "inconclusive: 28.2 µM [inhibitor, single point]"}, {"smiles": "Cc1ccc(/C=C/C(=O)N2CCN(S(=O)(=O)/C=C/c3ccccc3)CC2)o1", "activity change, negative = inhibition": "inactive: 2.91%"}, {"smiles": "CCc1ccc(OCC(=O)NC(Cc2c[nH]c3ccccc23)C(=O)O)cc1", "note": "(centres undefined)", "activity change, negative = inhibition": "inactive: 12.8%"}, {"smiles": "CCCN(C(=O)c1cc2c(=O)oc3ccccc3c2s1)c1ccc(CC)cc1", "activity change, negative = inhibition": "inactive: 12%"}, {"smiles": "COc1cc(/C=C(\\C#N)C(N)=O)ccc1OS(=O)(=O)c1ccc(C)cc1", "activity change, negative = inhibition": "inactive: -39.4%"}, {"smiles": "CC(=O)c1ccc(OCC(=O)N2CCCC2c2ccc3c(c2)OCCCO3)cc1", "note": "(centres undefined)", "activity change, negative = inhibition": "inactive: 14.5%"}, {"smiles": "Cc1ccccc1-c1noc(-c2ccc(N3CCCCC3)c([N+](=O)[O-])c2)n1", "activity change, negative = inhibition": "inactive: -1.02%"}, {"smiles": "CCOCCCN(Cc1ccco1)S(=O)(=O)c1cc2c(cc1Cl)NC(=O)CO2", "Potency": "inconclusive: 25.1 µM [inhibitor, single point]"}, {"smiles": "O=C(Oc1ccc(N(C(=O)c2ccncc2)S(=O)(=O)c2ccc(Cl)cc2)cc1)c1ccncc1", "Potency": "inconclusive: 28.2 µM [inhibitor, full curve]"}, {"smiles": "Cc1cc(C(F)(F)F)c2c(N)c(C(=O)Nc3cc(C)on3)sc2n1", "activity change, negative = inhibition": "inactive: -9.87%"}, {"smiles": "O=C(c1cc2cc(F)ccc2[nH]1)N1CCN(C(=O)c2ccco2)CC1", "Potency": "inconclusive: 56.2 µM [inhibitor, partial curve, poor fit]"}, {"smiles": "CCc1cccc2sc(N3CCN(C(=O)c4ccc([N+](=O)[O-])o4)CC3)nc12", "Potency": "inconclusive: 50.1 µM [inhibitor, partial curve, poor fit]"}, {"smiles": "CNCCNC[C@H](Cc1cccc2ccccc12)NCCc1ccccc1", "activity change, negative = inhibition": "inactive: -15.5%"}, {"smiles": "COc1ccccc1CN(C(=O)CCl)C(C(=O)NC1CCCCC1)c1ccncc1", "note": "(centres undefined)", "Potency": "inconclusive: 79.4 µM [inhibitor, single point]"}, {"smiles": "C=CCn1c(C)cc(C(=O)Cn2ncc(Cl)c(Cl)c2=O)c1C", "Potency": "inconclusive: 39.8 µM [inhibitor, partial curve]"}, {"smiles": "CC1CCN(Cc2c(O)ccc3c(=O)c(Oc4ccccc4Cl)c(C(F)(F)F)oc23)CC1", "activity change, negative = inhibition": "inactive: 0.86%"}, {"smiles": "Cc1ccc(S(=O)(=O)Nc2ccc(S(=O)(=O)N3CCOCC3)cc2)cc1", "activity change, negative = inhibition": "inactive: -7.8%"}, {"smiles": "N#Cc1c2ccc(OCC(N)=O)cc2n2ccccc12", "activity change, negative = inhibition": "inactive: 40.2%"}, {"smiles": "Cc1ccc(OCC(=O)Nc2ccccc2C(=O)NC2CC2)cc1C", "Potency": "inconclusive: 89.1 µM [inhibitor, partial curve, poor fit]"}, {"smiles": "NC(=O)C(OC(=O)CNC(=O)C1CCCCC1)c1ccccc1", "note": "(centres undefined)", "activity change, negative = inhibition": "inactive: 16.2% [at 0.0914 µM]"}, {"smiles": "O=C(C=C=Nc1ccccc1)C(=O)N=C=Cc1ccccc1", "Potency": "inconclusive: 28.2 µM [inhibitor, partial curve, poor fit]"}, {"smiles": "CCOC(=O)c1cc(CC)sc1N1C(=O)CC(Sc2ccccc2C(=O)O)C1=O", "note": "(centres undefined)", "Potency": "inconclusive: 56.2 µM [inhibitor, partial curve, poor fit]"}, {"smiles": "O=c1ccc(-c2ccc(S(=O)(=O)Nc3ccccc3Cl)o2)n[nH]1", "Potency": "inconclusive: 79.4 µM [inhibitor, single point]"}, {"smiles": "CS(=O)(=O)Nc1ccc(C2=NN(C(=O)c3cccc(F)c3)C(c3cccs3)C2)cc1", "note": "(centres undefined)", "activity change, negative = inhibition": "inactive: 8.83%"}, {"smiles": "COc1ccc(-c2nc(SCC(=O)NC3CCCC3)c(-c3ccc(F)cc3)[nH]2)cc1", "activity change, negative = inhibition": "inactive: 7.55%"}, {"smiles": "O=C(O)CCc1ccc(-c2ccc(Cl)cc2)n1CCC(=O)O", "Potency": "inconclusive: 35.5 µM [inhibitor, partial curve]"}]}]}
